The source gives no read counts; variants with many changes may rest on few reads.
B1: LINE1-mini (parent)
chain: GGCAGAGCUCAACACAGCGUGGCAAAGUGGCUGUGGCUAGACUGCC

Variants of: B1
Test: self-cleavage, relative activity (ratio to wild type); higher = more cleavage; in vitro, sequencing; the parent is a self-cleaving ribozyme

Row | Variant | self-cleavage
1 | G5U C8A G33C | 0.15
2 | G5U G7U C15A A26C G27A U32G | 0.26
3 | G5C C10U C37A A39G C45U | 0.01
4 | G5C A24C G29C C37G G44A | 0.03
5 | G5U C10U A14U | 0.03
6 | G5U C42A G44U C46G | 0
7 | G5U C45G C46A | 0.52
8 | G5C A14G C15G G29A | 0.01
9 | G5U G7C U34G | 0.01
10 | G5C C18U U38C | 0.02
11 | G5U G7U C10U C15A G30A U38C A41U | 0.14
12 | G5C G17C C18U G33C G44U | 0.04
13 | G5C A14C U43A | 0.04
14 | G5C A26G C31U | 0.03
15 | G5C G27C U34A | 0.04
16 | G5U C8A U9C A16C G19U G35C G36C U38A C42A | 0.02
17 | G5U C15G C18G C42U | 0.01
18 | G5U A6U A25G G30U U38G | 0.02
19 | G5C C10U G36U | 0.03
20 | G5C G40A C46U | 0.18
21 | G5C G21U G35A | 0.02

Row | Variant | self-cleavage
22 | G5U A14C A25C G33C | 0.08
23 | G5U C13A A14U | 0.05
24 | G5U A14U A24C G40A | 0.04
25 | G5U G7A G17U G27U G44U | 0.18
26 | G5C U20G G36A | 0.03
27 | G5U A6U C13G G17U A39C G40U C46A | 0.03
28 | G5U C23A G33A | 0.04
29 | G5U A14U G33A | 0.29
30 | G5C G17A G21A G35A | 0.02
31 | G5U A24C U38A G40A | 0.03
32 | G5U A16C A24G | 0
33 | G5U G7U C10G U38A G44C C45A | 0
34 | G5U G7A C8G G29A | 0.19
35 | G5U C8G U20G U32C G44U | 0.03
36 | G5U A12C G44A | 0.01
37 | G5U C15A C42A | 0
38 | G5C G7C U9A G35A A41U | 0.06
39 | G5C G40A G44U | 0.01
40 | G5C C8A U9C G35U | 0.22
41 | G5U C13A G33A C37G | 0.03
42 | G5C A16C G29A | 0.03

Row | Variant | self-cleavage
43 | G5U A6U A14G G27A G30C G35U G40C | 0.07
44 | G5C G7A C18G | 0.13
45 | G5U A6C C13U C23A A25G A26U | 0
46 | G5U A25C G35U | 0.04
47 | G5C C8A U9A C23A | 0.08
48 | G5U A16G G22C U28A G29U | 0
49 | G5C G19A C23A U38A U43A | 0.01
50 | G5U C23A G33A U34C | 0.02
51 | G5U A14G C15U C18G G21U C23A C46A | 0.02
52 | G5C G19A G21U C23G | 0.02
53 | G5U G7A G19U | 0.1
54 | G5U A11C A16C G27C U43C | 0.03
55 | G5U G7U A39C | 0.09
56 | G5C U9G U20A G21A C37U A39U | 0.01
57 | G5C C10U A39C | 0.03
58 | G5U A6G G35A C37U | 0.02
59 | G5C A14G C46A | 0
60 | G5U A12C U32C | 0
61 | G5U C23A A24U U34C A39G U43G C46U | 0.01
62 | G5C G17A G29U C42U | 0.15
63 | G5C C10G C13G C18A C31U | 0.02

Row | Variant | self-cleavage
64 | G5C G19A C42G | 0.98
65 | G5U A12U U28A | 0.01
66 | G5C G35C G40U | 0.05
67 | G5C G29U A41G | 0.06
68 | G5C A41U C45U C46G | 0.03
69 | G5U A11G G27A | 0
70 | G5U G7A G40A | 0.48
71 | G5C C8U C15U G33U | 0.02
72 | G5C U9A G21A U28A U34C | 0.42
73 | G5U A24U G33C | 0.01
74 | G5C C8G G36A C42U | 0.1
75 | G5U G17A G19U G40U | 0
76 | G5C C13U G36C C37U | 0.05
77 | G5C C8U C31A U34G G35A U38A | 0.05
78 | G5U C8U A12G C13G G33U G36A A39C | 0.03
79 | G5U C42A C45G | 0.07
80 | G5U A6U C37U C45G | 0.03
81 | G5C U20C G40U C46U | 0.02
82 | G5U C18A G22C | 0.03
83 | G5U A14G G36U | 0.03
